Data as given in PubChem BioAssay (NCI).
Several values for one entry are separate records, joined by “and”; a condition that tells them apart may be missing. Equal entries are not always repeated.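 Five concentrations, 48 hours, 96-well plates. GI50 = concentration required for 50% inhibition of growth. Definition used: TGI = concentration required for complete inhibition of growth.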

Tested on: NCI-H322M lung
Test: NCI-60 cell line screen, 48 h

| Compound | GI50 | TGI |
| --- | --- | --- |
| C/C(=C/CCC(C)[C@@H]1CC[C@]2(C)C3=C(CC[C@@]12C)[C@@]1(C)CCC(=O)C(C)(C)[C@@H]1CC3)C(=O)O (stereo not given in full) | 2.08 µM | 3.85 µM |
| C=C1C(=O)O[C@@H]2C[C@@]3(C)[C@H](O)CCC(=C)[C@@H]3C[C@H]12 |  | 21.3 µM |
| COc1ccc(N(CC(=O)O)N=O)cc1 |  | > 100 µM |
| CC(C)CNP(=O)(NCC(C)C)Oc1ccc(CC(NC(=O)OCc2ccccc2)C(=O)OCc2ccccc2)cc1 (stereo not given) |  | 26.6 µM |
| CCOC(=O)C(Cc1ccc(N=NN(C)C)cc1)NC(=O)CC1c2ccccc2-c2ccccc21 (stereo not given) |  | > 100 µM |
| CC1CC(c2ccccc2)=Nc2ccccc2S1 (stereo not given) |  | > 100 µM |
| CC[n+]1c(-c2ccccc2)c2cc(N)ccc2c2ccc(N)cc21 | 2.67 µM and 3.03 µM and 7.56 µM | 21.2 µM and 17.6 µM and 46.6 µM |
| CN1CCCc2nc3ccccc3n2C1 |  | > 100 µM |
| C1CN2CCO[SiH](O1)OCC2 |  | > 100 µM |
| CCN(CC)CCNc1n[n+]([O-])c2cc([N+](=O)[O-])ccc2[n+]1[O-] |  | 6.48 µM and 8.01 µM and 6.8 µM |
| O=C1/C(=C\c2cccc(Oc3ccccc3)c2)SC(c2ccccc2)N1c1cc(Cl)ccc1Cl (stereo not given) |  | > 100 µM |
| O=c1[nH]c2c(Nc3c4ccccc4nc4ccccc34)c([N+](=O)[O-])c(Nc3c4ccccc4nc4ccccc34)c([N+](=O)[O-])c2[nH]1 |  | 3.6 µM |
| COc1ccc(C2C(=O)c3ccc(OC)cc3OC2c2cccnc2)cc1 (stereo not given) |  | > 100 µM |
| N#Cc1ccccc1Sc1ccccc1N |  | > 100 µM |
| CNC(=O)OCc1nc(SSc2nc(COC(=O)NC)c(COC(=O)NC)n2C)n(C)c1COC(=O)NC |  | > 100 µM |
| COc1ccc(S(=O)(=O)NC(CCC(=O)NC(N)=O)C(=O)NC(N)=O)cc1 (stereo not given) |  | > 100 µM |
| O=S(Nc1ccccc1)c1ccc(Cl)cc1 (stereo not given) |  | > 100 µM |
| O=C(Nc1ccccc1C(=O)NC(=O)c1ccccc1NC(=O)c1ccccc1)c1ccccc1 |  | 27.1 µM |
| O=[N+]([O-])/C=C/c1cc(Cl)c(/C=C/[N+](=O)[O-])cc1Cl |  | 31.7 µM |
| OCCN1CCN(c2nc(N3CCCC3)c3nc(Cl)c(NCc4ccccc4)nc3n2)CC1 |  | 24.2 µM |
| CCOC(=O)C1C(c2ccc(Br)cc2)N(Cc2ccccc2)C(c2ccc(Br)cc2)C(C(=O)OC)S1(=O)=O (stereo not given) |  | > 100 µM |
| CCOC(=O)CNC(=O)c1[nH]cnc1/N=N/N(C)C |  | > 100 µM |
| Cc1ccc(NC(=O)CC/C(CC(=O)C(C)(C)C)=N/NC(=O)c2cc3ccccc3cc2O)cc1C |  | > 100 µM |
